In PubChem BioAssay AID651815 (National Center for Advancing Translational Sciences (NCATS), 2012):
The whole screen tested about 2,100 compounds, of which about 1,100 (52%) were called active. The set was probably picked from earlier hits. This list was built around the results that the source calls inconclusive (neither active nor inactive); the mix of calls is not that of the screen. Calls come from the whole dose curve; as a rule, active = well fitted inhibition curve with a large enough effect; inconclusive = small, poorly fitted or top-dose-only effect; inactive = no such curve, though single readings can be large or run the other way. No potency is given beside an inconclusive call; the fits are too rough.
Note: nearly all actives have a fitted effect of over 65% in size.
Potency is the fitted concentration of half-maximal effect; tags give direction and shape of the fitted curve.

The molecules below were run against DNA dC->dU-editing enzyme APOBEC-3F (Homo sapiens) (UniProt Q8IUX4) (assay: qHTS for inhibitors of Vif-A3F interactions: Cherry picks counterscreen). Settings: HeLa A3F-eYFP/Vif cells, eYFP fluorescence, 24 h; series mostly up to 46.1 µM.
Sequence of UniProt Q8IUX4 (Q8IUX4 whole entry, looked up): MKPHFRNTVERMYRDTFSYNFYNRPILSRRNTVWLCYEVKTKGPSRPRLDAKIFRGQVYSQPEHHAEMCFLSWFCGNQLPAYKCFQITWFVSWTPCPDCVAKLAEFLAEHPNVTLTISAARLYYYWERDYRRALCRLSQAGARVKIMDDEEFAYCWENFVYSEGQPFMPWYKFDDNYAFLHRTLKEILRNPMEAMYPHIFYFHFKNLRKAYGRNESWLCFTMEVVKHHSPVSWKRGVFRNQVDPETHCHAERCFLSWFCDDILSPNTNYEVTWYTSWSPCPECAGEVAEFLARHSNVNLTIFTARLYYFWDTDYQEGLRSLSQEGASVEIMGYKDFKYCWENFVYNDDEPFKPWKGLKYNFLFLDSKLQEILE
Procedure, shortened: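 Rescue of Vif-driven A3F-eYFP degradation read as cellular eYFP fluorescence after 24 h compound exposure (several concentrations) in stable HeLa cells; MG132 (2 mM stock) as positive control.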
In the case of N#CC1=C(N)Oc2cc(N)ccc2C1c1ccccc1F (configuration not stated), the Potency is reported as active: 4.98 µM.
For COc1ccccc1/C=C/C=N/n1c(-c2ccc(C)cc2)n[nH]c1=S, the Potency was inconclusive [inhibitor, full curve].
For CCOc1ccc2nc(NC(=O)c3nc(SC(C)C)ncc3Cl)sc2c1, the Potency was active: 11.6 µM.
In the case of O=C(/C=C/c1ccccc1)Nc1ncn[nH]1, the Potency is reported as inconclusive [inhibitor, single point].
For CCN(CC)C(=O)Cn1c(=O)n(-c2ccccc2)c(=O)c2c3c(sc21)CCC3, the Potency was active: 23.1 µM.
In the case of CCCOc1ccc(N)cc1N, the Potency is reported as “inactive”.
For CC(=O)Nc1sc(C)c(C)c1C(=O)OCC(=O)Nc1ccccc1, the Potency was inconclusive [inhibitor, single point].
In the case of O=C(N/N=C/c1cccc(F)c1)c1cc(-c2ccco2)nc2ccccc12, the Potency is reported as inconclusive [inhibitor, partial curve].
CC(C)(C)c1ccc(Oc2ccc(NC(=O)c3ccccc3C(=O)O)cn2)cc1 was tested, and the Potency was “inactive”.
O=C(N/N=C/c1ccc([N+](=O)[O-])o1)c1sc2ccccc2c1Cl was tested, and the Potency was inconclusive [inhibitor, single point].
With COc1ccccc1-c1cc(-c2ccccc2)nc(SC(C(N)=O)c2ccccc2)c1C#N (configuration not stated) the Potency was active: 17.7 µM.
With Cc1ccc(C(=O)Nc2sc(Cc3ccc4c(c3)OCO4)c(C)c2C(N)=O)cc1 the Potency was inconclusive [inhibitor, single point].
In the case of O=C(/C=C/c1ccco1)N1CCc2ccccc21, the Potency is reported as “inactive”.
With NC(=S)N/N=C\c1ccc(-c2cccc(Cl)c2Cl)o1 the Potency was inconclusive [inhibitor, single point].
For Cc1ccc(C2=NN(C(=O)c3cccs3)C(c3ccccc3O)C2)cc1 (configuration not stated), the Potency was “inactive”.
For COc1ccc(S(=O)(=O)NCc2ccccn2)cc1NC(=O)c1ccc(C)cc1, the Potency was inconclusive [inhibitor, partial curve].
In the case of CC1(C)CC(=O)C(C=Nc2cc(C(=O)c3ccccc3)ccc2N)=C(O)C1, the Potency is reported as inconclusive [inhibitor, partial curve, poor fit].
In the case of O=C1c2cccc3c(N4CCCCC4)ccc(c23)C(=O)N1CCO, the Potency is reported as active: 17.7 µM.
O=C(N/N=C/c1sc(=O)n(Cc2ccc(Br)cc2)c1Cl)c1ccco1 was tested, and the Potency was inconclusive [inhibitor, single point].
With Nc1c(C(=O)Nc2ccc(F)cc2)sc2nc(-c3cccs3)cc(C(F)(F)F)c12 the Potency was active: 2.91 µM.
In the case of COc1ccc2[nH]c3c(c2c1)CCNC3c1ccc([N+](=O)[O-])o1 (configuration not stated), the Potency is reported as active: 18.4 µM.
In the case of COc1ccc(N=c2oc3ccc(OC)cc3cc2-c2nc3ccccc3[nH]2)cc1, the Potency is reported as inconclusive [inhibitor, single point].
NNC(=S)Nc1c(F)cc(F)cc1Br was tested, and the Potency was “inactive”.
With O=C(Cc1nc2ccccc2[nH]c1=O)c1ccc(Cl)cc1 the Potency was active: 8.2 µM.
In the case of CCOC(=O)Nc1ccc2c3c(cccc13)-c1ccccc1-2, the Potency is reported as inconclusive [inhibitor, partial curve].
In the case of C=C(C(=O)c1ccccc1)C(C(=C)C(=O)c1ccccc1)c1ccc(OC)cc1, the Potency is reported as active: 3.96 µM.
For Cc1ccc2[nH]c3c(c2c1)CCCC3NC(=O)CCl (configuration not stated), the Potency was inconclusive [inhibitor, full curve].
O=C(Nc1nc(NC(=O)c2ccco2)n(-c2ccccc2)n1)c1ccccc1 was tested, and the Potency was “inactive”.
In the case of COc1cc(NC(=O)C2=C(N3CCOCC3)/C(=C\c3ccc(N(C)C)cc3)CCC2)cc(OC)c1OC, the Potency is reported as active: 5.59 µM.
With Cc1ccc(/C=N/NC(=O)CCCOc2ccc(Cl)cc2Cl)cc1 the Potency was active: 4.98 µM.
COC1=C(OC)C(=O)C(Sc2ccc3ccccc3c2)=CC1=O was tested, and the Potency was inconclusive [inhibitor, single point].
In the case of O=[N+]([O-])c1ccc(-c2ccc(/C=N/Nc3nc(NCc4ccccc4)nc(N4CCOCC4)n3)o2)cc1, the Potency is reported as active: 18.4 µM.
For CCN1CCN(Cc2ccc(NC(=O)c3ccc(C)c(/C=C/c4cnc(Nc5cc(N6CCNCC6)nc(C)n5)cn4)c3)cc2C(F)(F)F)CC1, the Potency was inconclusive [inhibitor, single point].
For CCN(CC)c1ccc2cc(-c3nc4sc5c(c4c(=O)[nH]3)CCC(C(C)(C)C)C5)c(=O)oc2c1 (configuration not stated), the Potency was “inactive”.
In the case of COc1ccc2c(c1)c1nc3ccccc3nc1n2Cc1ccc(OC(C)C)c(OC)c1, the Potency is reported as inconclusive [inhibitor, single point].
With COc1cc(/C=C(/C(=O)c2cccs2)c2nc3ccccc3[nH]2)ccc1O the Potency was inconclusive [inhibitor, single point].
With CN(C)c1ccc(/C=C/c2nc3ccccc3c(=O)[nH]2)cc1 the Potency was inconclusive [inhibitor, single point].
COc1ccccc1Nc1cc2cc(Br)ccc2c(=O)[nH]1 was tested, and the Potency was active: 7.04 µM.
With CC1(C(=O)Nc2ccc3c(c2)OCO3)Cc2c(-c3ccccc3)ccnc2O1 (configuration not stated) the Potency was inconclusive [inhibitor, single point].
With N#C/C(=C\c1ccc(-c2ccccc2C(=O)O)o1)c1nc2ccccc2[nH]1 the Potency was inconclusive [inhibitor, single point].
For Nc1nc(-c2cc(O)ccc2[N+](=O)[O-])cc(-c2ccccc2)c1[N+](=O)[O-], the Potency was inconclusive [inhibitor, partial curve].
CCCn1c(C2CCCN2c2nc(-c3cccc(Br)c3)cs2)nc2ccccc21 (configuration not stated) was tested, and the Potency was “inactive”.
In the case of c1ccc(Nc2nc(-c3ccccn3)cs2)cc1, the Potency is reported as “inactive”.
COc1ccc(/C=C(/C(=O)c2cccs2)N2C=CC=CC2=C(C#N)C#N)cc1 was tested, and the Potency was inconclusive [inhibitor, single point].
With COc1cc(/C=N/NC(=O)c2cc(-c3c(C)nn(-c4ccccc4)c3C)n[nH]2)ccc1O the Potency was inconclusive [inhibitor, single point].
O=C(NC(=S)Nc1ccc(-c2ccccc2)cc1)c1ccccc1 was tested, and the Potency was “inactive”.
With CSC1=NC(C(Cl)(Cl)Cl)N=C(c2ccccc2)N1 (configuration not stated) the Potency was inconclusive [inhibitor, partial curve, poor fit].
